The list shows a part of the results, in another mix than the full data. For some of these results: At the low end of the ranking the order means little. This is one part of the list. For some of these results: Construct or isoform of the protein are uncertain.
Biological target: T1, GST-NST2(1-184) (UniProt Q9M274)
T1 sequence: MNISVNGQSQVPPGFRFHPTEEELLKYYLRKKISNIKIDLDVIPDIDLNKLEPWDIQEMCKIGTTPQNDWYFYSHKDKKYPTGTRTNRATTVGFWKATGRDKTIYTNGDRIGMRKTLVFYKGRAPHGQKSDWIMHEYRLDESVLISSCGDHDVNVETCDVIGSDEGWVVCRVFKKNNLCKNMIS
Assay: universal protein binding microarray (PBM)
Conditions: high values mean tight binding; double strand, one strand shown

Sequence | binding signal
TCAGTCAA | -0.00316 E-score
ACTTTCCT | 0.144 E-score
TGGAGTAA | 0.317 E-score
AGTCTACG | 0.0274 E-score
GTCAACGA | -0.149 E-score
ACGGCAGT | 0.138 E-score
ATTTCCTC | 0.115 E-score
CTGACTTC | -0.0152 E-score
AAAGTCGT | 0.13 E-score
AGACGTGA | 0.157 E-score
TGACCGAA | 0.00371 E-score
ACCTTACC | -0.0579 E-score
GGGGGTAA | -0.101 E-score
ACTAGTCA | 0.034 E-score
AGCGTTGA | 0.0637 E-score
GTTGGTCA | -0.0594 E-score
CACGTCAG | 0.0323 E-score
CTTTTGAC | 0.00386 E-score
GACGTAAC | 0.24 E-score
ACTGACCT | 0.00237 E-score

Biological target: T2, GST-NTL8 NAC domain (UniProt Q9XIN7)
T2 sequence: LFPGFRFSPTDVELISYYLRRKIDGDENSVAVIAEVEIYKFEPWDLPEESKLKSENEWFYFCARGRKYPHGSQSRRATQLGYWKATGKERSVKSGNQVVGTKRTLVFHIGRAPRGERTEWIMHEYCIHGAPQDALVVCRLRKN
Assay: universal protein binding microarray (PBM)
Conditions: high values mean tight binding; double strand, one strand shown

Sequence | binding signal
ACGCTACC | -0.0173 E-score
TCAGTCAA | 0.0655 E-score
ACTTTCCT | 0.4 E-score
TGGAGTAA | -0.0934 E-score
TAGAGTAA | 0.065 E-score
AGTCTACG | -0.113 E-score
TTACTCAA | 0.0629 E-score
GCTAAGCA | -0.101 E-score
GTCAACGA | -0.048 E-score
CGAAGGAA | 0.459 E-score
GTAGTCAA | 0.00194 E-score
ACGGCAGT | -0.0802 E-score
ACACGATA | 0.0171 E-score
AAAGTCGT | -0.0847 E-score
AGACGTGA | 0.116 E-score
TGACCGAA | -0.105 E-score
AATAGTCA | -0.0322 E-score
AAGACCAA | 0.00577 E-score
ACCTTACC | 0.417 E-score
GGGGGTAA | 0.403 E-score
ACTAGTCA | 0.128 E-score
AGCGTTGA | -0.0995 E-score
GTTGGTCA | 0.0397 E-score
CACGTCAG | -0.0986 E-score
ATACGTAA | 0.0445 E-score
ACGCGATC | -0.0727 E-score
CTACGCGA | 0.0132 E-score
CTTTTGAC | -0.0727 E-score
AAGTCAAA | -0.00307 E-score

Biological target: T3, GST-SND1(1-203) (UniProt Q9LPI7)
T3 sequence: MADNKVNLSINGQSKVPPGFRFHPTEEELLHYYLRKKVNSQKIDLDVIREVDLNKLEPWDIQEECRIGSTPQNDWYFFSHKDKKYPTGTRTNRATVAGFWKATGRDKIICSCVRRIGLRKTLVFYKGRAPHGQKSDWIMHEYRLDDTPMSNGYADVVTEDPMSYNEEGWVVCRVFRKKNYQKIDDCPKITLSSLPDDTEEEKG
Assay: universal protein binding microarray (PBM)
Conditions: high values mean tight binding; double strand, one strand shown

Sequence | binding signal
TAGAGTAA | 0.401 E-score
ATTACTTC | 0.347 E-score
TTACTCAA | 0.445 E-score
GTCAACGA | 0.041 E-score
ACACGCAA | 0.477 E-score
GTCAATCA | 0.0451 E-score
ACGGCAGT | 0.0425 E-score
ACACGATA | 0.266 E-score
AAAGTCGT | -0.026 E-score
AGACGTGA | 0.25 E-score
AATAGTCA | -0.0528 E-score
AAGACCAA | -0.0103 E-score
ACTAGTCA | -0.00161 E-score
GTTGGTCA | -0.0996 E-score
CACGTCAG | 0.0864 E-score
ATACGTAA | 0.393 E-score
CTTTTGAC | 0.0461 E-score
AAGTCAAA | 0.0314 E-score
ACGAGAAA | 0.151 E-score
GACGTAAC | 0.392 E-score

Biological target: T4, GST-VND3 NAC domain (UniProt Q9FH59)
T4 sequence: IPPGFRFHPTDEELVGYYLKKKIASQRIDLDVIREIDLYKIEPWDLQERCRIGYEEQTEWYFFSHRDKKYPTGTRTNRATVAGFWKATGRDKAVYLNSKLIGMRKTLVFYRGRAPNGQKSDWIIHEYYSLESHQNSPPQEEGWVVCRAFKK
Assay: universal protein binding microarray (PBM)
Conditions: high values mean tight binding; double strand, one strand shown

Sequence | binding signal
ACGCTACC | 0.0872 E-score
TCAGTCAA | 0.0235 E-score
ACTTTCCT | 0.018 E-score
TGGAGTAA | 0.0609 E-score
AGTCTACG | -0.11 E-score
GCTAAGCA | -0.0632 E-score
GCGTAAAA | 0.197 E-score
CGAAGGAA | -0.00821 E-score
GTAGTCAA | 0.134 E-score
ATTTCCTC | 0.00513 E-score
CTGACTTC | -0.124 E-score
TGACCGAA | -0.019 E-score
ACCTTACC | -0.0195 E-score
GGGGGTAA | -0.213 E-score
AGCGTTGA | -0.101 E-score
AAAGGTAA | 0.035 E-score
ACGCGATC | -0.018 E-score
CTACGCGA | -0.0903 E-score
ACTGACCT | -0.0318 E-score

Biological target: T5, GST-VND7 NAC domain (UniProt Q9C8W9)
T5 sequence: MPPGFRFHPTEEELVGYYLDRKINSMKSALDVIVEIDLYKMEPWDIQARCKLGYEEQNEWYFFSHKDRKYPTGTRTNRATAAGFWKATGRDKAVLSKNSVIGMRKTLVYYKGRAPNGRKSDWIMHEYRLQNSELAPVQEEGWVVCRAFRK
Assay: universal protein binding microarray (PBM)
Conditions: high values mean tight binding; double strand, one strand shown

Sequence | binding signal
ACGCTACC | 0.181 E-score
TCAGTCAA | -0.0285 E-score
ACTTTCCT | 0.121 E-score
TGGAGTAA | 0.131 E-score
AGTCTACG | -0.0261 E-score
GCTAAGCA | -0.00704 E-score
GCGTAAAA | 0.174 E-score
CGAAGGAA | 0.0445 E-score
GTAGTCAA | -0.0478 E-score
ATTTCCTC | -0.0525 E-score
CTGACTTC | 0.00865 E-score
TGACCGAA | -0.0822 E-score
ACCTTACC | 0.0483 E-score
GGGGGTAA | -0.196 E-score
AGCGTTGA | -0.0167 E-score
AAAGGTAA | -0.0391 E-score
ACGCGATC | -0.0254 E-score
CTACGCGA | 0.0441 E-score
ACTGACCT | -0.0778 E-score

Biological target: T6, GST-VOZ2 (Arabidopsis thaliana) (UniProt Q9SLB9)
T6 sequence: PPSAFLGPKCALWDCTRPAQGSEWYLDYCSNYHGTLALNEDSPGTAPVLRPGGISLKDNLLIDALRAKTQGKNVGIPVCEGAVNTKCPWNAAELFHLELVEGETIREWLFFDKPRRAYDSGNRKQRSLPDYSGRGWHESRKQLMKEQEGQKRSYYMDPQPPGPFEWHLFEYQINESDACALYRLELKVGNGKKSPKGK
Assay: universal protein binding microarray (PBM)
Conditions: high values mean tight binding; double strand, one strand shown

Sequence | binding signal
ACGCTACC | 0.188 E-score
TCAGTCAA | -0.023 E-score
ACTTTCCT | -0.0114 E-score
TGGAGTAA | 0.0418 E-score
TAGAGTAA | -0.0401 E-score
AGTCTACG | -0.106 E-score
ATTACTTC | 0.0617 E-score
TTACTCAA | 0.0666 E-score
GCTAAGCA | -0.177 E-score
GCGTAAAA | 0.255 E-score
GTCAACGA | 0.0147 E-score
ACACGCAA | 0.215 E-score
CGAAGGAA | 0.0667 E-score
GTAGTCAA | -0.0562 E-score
GTCAATCA | 0.16 E-score
ACGGCAGT | -0.00946 E-score
ACACGATA | 0.218 E-score
ATTTCCTC | 0.0711 E-score
CTGACTTC | 0.0241 E-score
AAAGTCGT | -0.00954 E-score

Sequence | binding signal
AGACGTGA | 0.0434 E-score
TGACCGAA | 0.0418 E-score
AATAGTCA | 0.0653 E-score
AAGACCAA | 0.0393 E-score
ACCTTACC | 0.119 E-score
GGGGGTAA | 0.155 E-score
ACTAGTCA | -0.0575 E-score
AGCGTTGA | 0.0234 E-score
GTTGGTCA | 0.0524 E-score
AAAGGTAA | -0.0846 E-score
CACGTCAG | -0.112 E-score
ATACGTAA | 0.0642 E-score
ACGCGATC | 0.0286 E-score
CTACGCGA | 0.0326 E-score
CTTTTGAC | 0.109 E-score
AAGTCAAA | 0.103 E-score
ACGAGAAA | 0.0526 E-score
GACGTAAC | -0.00929 E-score
ACTGACCT | -0.0195 E-score

Biological target: GST-WRKY1(266-371) (UniProt Q9SI37)
Assay: universal protein binding microarray (PBM)
Conditions: transcription factors of Arabidopsis thaliana; high values mean tight binding; most listed sequences are background and not binding sites; double strand, one strand shown

Sequence | binding signal
ACGCTACC | -0.0865 E-score
TCAGTCAA | 0.473 E-score
ACTTTCCT | 0.171 E-score
TGGAGTAA | -0.0428 E-score
AGTCTACG | 0.401 E-score
TTACTCAA | -0.0441 E-score
GCTAAGCA | -0.213 E-score
GCGTAAAA | 0.0322 E-score
CGAAGGAA | -0.00171 E-score
GTAGTCAA | 0.478 E-score
ACACGATA | -0.194 E-score
ATTTCCTC | -0.112 E-score
CTGACTTC | 0.412 E-score
TGACCGAA | 0.459 E-score
ACCTTACC | -0.0454 E-score
GGGGGTAA | -0.29 E-score
AGCGTTGA | 0.401 E-score
AAAGGTAA | -0.0475 E-score
ATACGTAA | 0.0363 E-score
ACGCGATC | -0.0321 E-score
CTACGCGA | 0.0113 E-score
ACGAGAAA | 0.0488 E-score
ACTGACCT | 0.407 E-score
